Results: PubChem BioAssay AID1645882 (National Center for Advancing Translational Sciences (NCATS), 2021)
Hit rate of the full screen: of about 16,000 compounds, about 120 (0.75%) were called active. Inconclusive results (about 4%) are left out. Calls follow the shape of the dose curve; as a rule, active = well fitted inhibition curve with a large enough effect; inconclusive = small, poorly fitted or top-dose-only effect; inactive = no such curve, though single readings can be large or run the other way. This is one part of the list.
Also: nearly all actives have a fitted effect of over 75% in size.

What follows are compounds tested against Rap guanine nucleotide exchange factor 3 (Homo sapiens) (UniProt O95398) (assay: Validation qHTS for antagonist of cAMP-regulated guanine nucleotide exchange factor 3 (EPAC1)). Conditions: EPAC1 Rap1B-BODIPY-GDP exchange, fluorescence; series mostly up to 150 µM; activity change, negative = inhibition: at the top concentration.
UniProt O95398, sequence (O95398 whole entry, looked up): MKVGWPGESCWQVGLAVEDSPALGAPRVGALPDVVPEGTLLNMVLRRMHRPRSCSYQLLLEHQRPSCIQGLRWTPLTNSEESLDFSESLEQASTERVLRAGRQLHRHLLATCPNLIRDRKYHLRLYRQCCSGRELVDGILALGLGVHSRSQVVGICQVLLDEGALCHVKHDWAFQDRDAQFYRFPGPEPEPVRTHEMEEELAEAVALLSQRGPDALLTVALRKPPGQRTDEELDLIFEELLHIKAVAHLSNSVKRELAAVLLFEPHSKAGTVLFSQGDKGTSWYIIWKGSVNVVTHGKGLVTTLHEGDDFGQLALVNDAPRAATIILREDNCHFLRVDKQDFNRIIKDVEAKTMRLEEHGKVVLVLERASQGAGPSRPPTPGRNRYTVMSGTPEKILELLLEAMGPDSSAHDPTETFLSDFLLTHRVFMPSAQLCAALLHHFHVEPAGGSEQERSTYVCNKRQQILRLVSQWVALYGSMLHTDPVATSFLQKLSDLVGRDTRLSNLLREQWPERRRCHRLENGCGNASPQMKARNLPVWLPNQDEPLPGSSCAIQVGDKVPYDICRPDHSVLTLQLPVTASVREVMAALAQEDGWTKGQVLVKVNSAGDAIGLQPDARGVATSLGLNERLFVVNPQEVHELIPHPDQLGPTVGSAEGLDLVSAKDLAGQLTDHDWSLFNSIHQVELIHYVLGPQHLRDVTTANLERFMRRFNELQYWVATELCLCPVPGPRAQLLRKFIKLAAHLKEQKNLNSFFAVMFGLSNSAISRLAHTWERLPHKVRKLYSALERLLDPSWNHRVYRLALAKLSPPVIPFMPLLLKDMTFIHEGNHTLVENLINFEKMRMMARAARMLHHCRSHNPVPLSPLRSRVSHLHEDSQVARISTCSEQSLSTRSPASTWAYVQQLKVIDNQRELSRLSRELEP
How it was run: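 EPAC1 (100 nM) mixed with 250 nM RAP1B-BODIPY-GDP and 50 uM GDP; compounds in concentration series, 5 min at room temperature. Fluorescence (ex 480/em 540 nm) read every 5 min for 30 min; normalized to ATA control and DMSO.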
For CCC(OC(C)=O)C(CC(C)NC)(c1ccccc1)c1ccccc1 (centres undefined), the “activity change, negative = inhibition” value was inactive: -0.531% [at 320 µM].
With CNCC(O)c1ccc(O)cc1 (centres undefined) the activity change, negative = inhibition was “inactive”.
CC(=O)C1CC[C@H]2C3CC[C@@H]4CC(O)CC[C@@]4(C)C3CC[C@]12C (some centres undefined) was tested, and the “activity change, negative = inhibition” value was inactive: -6.27%.
c1ccc(N2CCCC3(CCNCC3)C2)cc1 was tested, and the “activity change, negative = inhibition” value was inactive: 19.3%.
With O=C(Cc1ccc(Cl)c(Cl)c1)N1CCCCC1CN1CCCC1 (centres undefined) the activity change, negative = inhibition was “inactive”.
In the case of S=C=S, the “activity change, negative = inhibition” value is reported as inactive: 20.5%.
In the case of C#CCOC(=O)C1=CCCN(C)C1, the activity change, negative = inhibition is reported as “inactive”.
With CNC(C)CC1CCCCC1 (centres undefined) the “activity change, negative = inhibition” value was inactive: 12.3%.
CO[C@@H]1C[C@@H](C[C@H]2CC[C@H](C)[C@@H]([C@@H](C)C(=O)O)O2)O[C@]2(O[C@](C)([C@H]3CC[C@@](C)(C4OC([C@H]5O[C@@](O)(CO)[C@H](C)C[C@@H]5C)C[C@@H]4C)O3)C[C@H]2C)[C@@H]1C (some centres undefined) was tested, and the “activity change, negative = inhibition” value was inactive: 42.7%.
With COCC(=O)N(c1c(C)cccc1C)C(C)C(=O)OC (centres undefined) the “activity change, negative = inhibition” value was inactive: 20.9%.
For O=C(Nc1cccc(F)c1)N1CCCC2(CCN(C(=O)Oc3ccccc3)CC2)C1, the “activity change, negative = inhibition” value was inactive: -12.6%.
For c1ccc(CCN2CCCC2)cc1, the “activity change, negative = inhibition” value was inactive: 19.5%.
With O=C(O)CCCOc1ccc(Cl)cc1Cl the activity change, negative = inhibition was “inactive”.
CC(N)(COP(=O)(O)Oc1ccccc1)C(=O)O (centres undefined) was tested, and the “activity change, negative = inhibition” value was inactive: 29.5%.
For O=C(NC(=O)c1ccccc1Cl)Nc1ccc(OC(F)(F)F)cc1, the “activity change, negative = inhibition” value was inactive: -1.72%.
For NCC(CP(=O)(O)O)c1ccc(Cl)cc1 (centres undefined), the activity change, negative = inhibition was “inactive”.
With N[C@@H](Cn1cc(I)c(=O)[nH]c1=O)C(=O)O the “activity change, negative = inhibition” value was inactive: -6.86%.
c1cnc(N2CCCC3(CCNCC3)C2)nc1 was tested, and the “activity change, negative = inhibition” value was inactive: 9.73%.
CCC(CO)NC(=O)C1C=C2c3cccc4[nH]cc(c34)CC2N(C)C1 (centres undefined) was tested, and the “activity change, negative = inhibition” value was inactive: -17.3%.
In the case of CCCN1CCc2cccc3c2C1Cc1ccc(O)c(O)c1-3 (centres undefined), the “activity change, negative = inhibition” value is reported as inactive: 26.9%.
For CCCC(=O)OCC[N+](C)(C)C, the “activity change, negative = inhibition” value was inactive: 20.2%.
For c1ccc(C2CC2)c(OCC2=NCCN2)c1, the activity change, negative = inhibition was “inactive”.
With CN1Cc2c(ccc3c2OCO3)C2C(O)Cc3cc4c(cc3C21)OCO4 (centres undefined) the activity change, negative = inhibition was “inactive”.
CN1C2CC3CC1C(O3)C2O (centres undefined) was tested, and the “activity change, negative = inhibition” value was inactive: -4.51%.
In the case of CC[C@H]1C[C@@H]2C[C@H]3c4[nH]c5ccc(OC)cc5c4CCN(C2)[C@@H]13, the “activity change, negative = inhibition” value is reported as inactive: 24.3% [at 320 µM].
With C[C@]12CCC(=O)C(O)=C1CC[C@@H]1[C@@H]2CC[C@]2(C)C(=O)CC[C@@H]12 the “activity change, negative = inhibition” value was inactive: 19.9%.
ClCCN(CCCl)/C(=C\c1ccccc1)c1ccnc2ccccc12 was tested, and the “activity change, negative = inhibition” value was inactive: 23.4%.
For C[C@]12CCC3C(CC[C@]4(O)CC(O)CC[C@@]34C=O)[C@]1(O)CCC2C1=CC(=O)OC1 (some centres undefined), the “activity change, negative = inhibition” value was inactive: 8.1%.
For OC(O)C(Cl)(Cl)Cl, the “activity change, negative = inhibition” value was inactive: 15.2%.
CNC(C)(C)Cc1ccccc1 was tested, and the activity change, negative = inhibition was “inactive”.
With CCOP(=S)(OCC)Oc1cc(C)nc(C(C)C)n1 the “activity change, negative = inhibition” value was inactive: 17.8%.
CNC(Cc1c[nH]c2ccccc12)C(=O)O (centres undefined) was tested, and the “activity change, negative = inhibition” value was inactive: 16.2%.
For CN1C(=O)CN=C(c2ccccc2)c2cc([N+](=O)[O-])ccc21, the “activity change, negative = inhibition” value was inactive: -5%.
For CC(=O)[C@H]1CC[C@H]2[C@@H]3CC[C@@H]4C[C@H](O)CC[C@]4(C)[C@H]3CC[C@]12C, the “activity change, negative = inhibition” value was inactive: -2.52%.
